Results as given in the supplement of paper PMC7125110.
± gives the standard error. This sample is rich in variants without activity.

B1: glmS ribozyme (parent)
chain: AUAAAAGCGCCAGAACUACAGAAAUGUAGUUGACGAGGAGGAGGUUUAUCGAAUUUUCGGCGGAUGCCUCCAAA

Columns and labels:
Details in all cases: with glucosamine-6-phosphate
[1] = variants of: B1; test: self-cleavage kobs at 40 uM GlcN6P; higher = faster cleavage; RNA array
Procedure, shortened: (§1)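 kobs was derived by fitting per-tile medians to one- or two-exponential decays after normalising signals to baseline and to non-cleaving reference variants. Those signals came from barcoded ribozyme variants transcribed in situ by E. coli RNA polymerase on sequenced MiSeq chips, followed through a hybridised Cy3 probe at 37 °C and imaged over ~14 h. Glucosamine-6-phosphate (40 μM to 10 mM) in HEPES/KCl/Mg(OAc)2 buffer was flowed in. Weighted Michaelis–Menten fits across concentrations then gave kcat and KM.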

[2] = variants of: B1; test: self-cleavage kobs at 640 uM GlcN6P; higher = faster cleavage; RNA array
Procedure, shortened: as §1

[3] = variants of: B1; test: self-cleavage kobs at 160 uM GlcN6P; higher = faster cleavage; RNA array
Procedure, shortened: as §1

[4] = variants of: B1; test: self-cleavage kobs at 10000 uM GlcN6P; higher = faster cleavage; RNA array
Procedure, shortened: as §1

[5] = variants of: B1; test: self-cleavage kobs at 2500 uM GlcN6P; higher = faster cleavage; RNA array
Procedure, shortened: as §1

A12U G13U A48G G60A G62A
self-cleavage kobs at 40 uM GlcN6P [1]: < 1e-05 s⁻¹
self-cleavage kobs at 640 uM GlcN6P [2]: < 1e-05 s⁻¹
self-cleavage kobs at 160 uM GlcN6P [3]: < 1e-05 s⁻¹
self-cleavage kobs at 10000 uM GlcN6P [4]: < 1e-05 s⁻¹

A12C U30C U45A G59A G60C
self-cleavage kobs at 40 uM GlcN6P [1]: < 1e-05 s⁻¹
self-cleavage kobs at 10000 uM GlcN6P [4]: < 1e-05 s⁻¹

C11U G37U G43U G63U
self-cleavage kobs at 40 uM GlcN6P [1]: < 1e-05 s⁻¹

A12G C34U A36U
self-cleavage kobs at 40 uM GlcN6P [1]: < 1e-05 s⁻¹
self-cleavage kobs at 640 uM GlcN6P [2]: < 1e-05 s⁻¹
self-cleavage kobs at 160 uM GlcN6P [3]: < 1e-05 s⁻¹
self-cleavage kobs at 10000 uM GlcN6P [4]: < 1e-05 s⁻¹

A12C A42G
self-cleavage kobs at 40 uM GlcN6P [1]: 0.00118 ± 0.00019 s⁻¹
self-cleavage kobs at 160 uM GlcN6P [3]: 0.00222 ± 0.00053 s⁻¹

C11G G13C U45G U47A
self-cleavage kobs at 40 uM GlcN6P [1]: < 1e-05 s⁻¹
self-cleavage kobs at 2500 uM GlcN6P [5]: < 1e-05 s⁻¹

A12U C68G C70G
self-cleavage kobs at 40 uM GlcN6P [1]: < 1e-05 s⁻¹

C11U U49C G51U
self-cleavage kobs at 40 uM GlcN6P [1]: < 1e-05 s⁻¹

A12U G40U C61A
self-cleavage kobs at 40 uM GlcN6P [1]: < 1e-05 s⁻¹

C11G G38U G63A
self-cleavage kobs at 40 uM GlcN6P [1]: < 1e-05 s⁻¹
self-cleavage kobs at 2500 uM GlcN6P [5]: < 1e-05 s⁻¹

C11G G60U
self-cleavage kobs at 40 uM GlcN6P [1]: < 1e-05 s⁻¹
self-cleavage kobs at 640 uM GlcN6P [2]: < 1e-05 s⁻¹
self-cleavage kobs at 160 uM GlcN6P [3]: < 1e-05 s⁻¹
self-cleavage kobs at 10000 uM GlcN6P [4]: < 1e-05 s⁻¹

C11U A14C U30C G41U A64U
self-cleavage kobs at 40 uM GlcN6P [1]: < 1e-05 s⁻¹
self-cleavage kobs at 10000 uM GlcN6P [4]: < 1e-05 s⁻¹

C11U G37C U65G
self-cleavage kobs at 40 uM GlcN6P [1]: < 1e-05 s⁻¹

C11U G29C C34A G37U
self-cleavage kobs at 40 uM GlcN6P [1]: < 1e-05 s⁻¹

A12G U55C U57C C70A
self-cleavage kobs at 40 uM GlcN6P [1]: < 1e-05 s⁻¹
self-cleavage kobs at 10000 uM GlcN6P [4]: < 1e-05 s⁻¹

G13A C16U C67U
self-cleavage kobs at 40 uM GlcN6P [1]: < 1e-05 s⁻¹
self-cleavage kobs at 2500 uM GlcN6P [5]: 0.000111 ± 2.7e-05 s⁻¹
self-cleavage kobs at 10000 uM GlcN6P [4]: 0.00025 ± 4.5e-05 s⁻¹

A12C U54C
self-cleavage kobs at 40 uM GlcN6P [1]: 0.00107 ± 0.00014 s⁻¹
self-cleavage kobs at 640 uM GlcN6P [2]: 0.0063 ± 0.0021 s⁻¹
self-cleavage kobs at 160 uM GlcN6P [3]: 0.00117 ± 0.00027 s⁻¹
self-cleavage kobs at 2500 uM GlcN6P [5]: 0.0137 ± 0.0032 s⁻¹
self-cleavage kobs at 10000 uM GlcN6P [4]: 0.0203 ± 0.0043 s⁻¹

C11G C68U C70G
self-cleavage kobs at 40 uM GlcN6P [1]: < 1e-05 s⁻¹

A12G G32U A33C
self-cleavage kobs at 40 uM GlcN6P [1]: < 1e-05 s⁻¹

C11U A14C A33G A42U G60C
self-cleavage kobs at 40 uM GlcN6P [1]: < 1e-05 s⁻¹
self-cleavage kobs at 160 uM GlcN6P [3]: < 1e-05 s⁻¹
self-cleavage kobs at 2500 uM GlcN6P [5]: < 1e-05 s⁻¹
self-cleavage kobs at 10000 uM GlcN6P [4]: < 1e-05 s⁻¹

C11G C71U
self-cleavage kobs at 40 uM GlcN6P [1]: < 1e-05 s⁻¹
self-cleavage kobs at 160 uM GlcN6P [3]: < 1e-05 s⁻¹

C11G C71A
self-cleavage kobs at 40 uM GlcN6P [1]: < 1e-05 s⁻¹
self-cleavage kobs at 160 uM GlcN6P [3]: < 1e-05 s⁻¹

G13C G40C
self-cleavage kobs at 40 uM GlcN6P [1]: < 1e-05 s⁻¹

G13C G40U
self-cleavage kobs at 40 uM GlcN6P [1]: < 1e-05 s⁻¹
self-cleavage kobs at 640 uM GlcN6P [2]: < 1e-05 s⁻¹
self-cleavage kobs at 160 uM GlcN6P [3]: < 1e-05 s⁻¹

A12C A24U A52C C67A
self-cleavage kobs at 40 uM GlcN6P [1]: < 1e-05 s⁻¹

A12U G35C A42C G60U C68A
self-cleavage kobs at 40 uM GlcN6P [1]: < 1e-05 s⁻¹

A12U C61U
self-cleavage kobs at 40 uM GlcN6P [1]: < 1e-05 s⁻¹
self-cleavage kobs at 160 uM GlcN6P [3]: < 1e-05 s⁻¹

A12C U47C
self-cleavage kobs at 40 uM GlcN6P [1]: 5.87e-05 ± 6.2e-06 s⁻¹
self-cleavage kobs at 640 uM GlcN6P [2]: 0.000953 ± 0.00013 s⁻¹
self-cleavage kobs at 160 uM GlcN6P [3]: 0.000185 ± 3.6e-05 s⁻¹
self-cleavage kobs at 2500 uM GlcN6P [5]: 0.00187 ± 0.00022 s⁻¹

A12G G40A U55C
self-cleavage kobs at 40 uM GlcN6P [1]: < 1e-05 s⁻¹
